Assay results: ChEMBL document CHEMBL2157995, “Cyclic tetrapeptides with thioacetate tails or intramolecular disulfide bridge as potent inhibitors of histone deacetylases” (Bioorg Med Chem Lett, 2012)
pIC50: −log10 of the molar value.

How the values were obtained:
Histone deacetylase 4 [1] = molecular target: T1, Histone deacetylase 4 (Homo sapiens, UniProt P56524); assay: Inhibition of HDAC4 by fluorimetric assay in presence of DTT
Histone deacetylase 1 [2] = molecular target: T2, Histone deacetylase 1 (Homo sapiens, UniProt Q13547); assay: Inhibition of HDAC1 by fluorimetric assay
T2 sequence (Q13547 whole entry): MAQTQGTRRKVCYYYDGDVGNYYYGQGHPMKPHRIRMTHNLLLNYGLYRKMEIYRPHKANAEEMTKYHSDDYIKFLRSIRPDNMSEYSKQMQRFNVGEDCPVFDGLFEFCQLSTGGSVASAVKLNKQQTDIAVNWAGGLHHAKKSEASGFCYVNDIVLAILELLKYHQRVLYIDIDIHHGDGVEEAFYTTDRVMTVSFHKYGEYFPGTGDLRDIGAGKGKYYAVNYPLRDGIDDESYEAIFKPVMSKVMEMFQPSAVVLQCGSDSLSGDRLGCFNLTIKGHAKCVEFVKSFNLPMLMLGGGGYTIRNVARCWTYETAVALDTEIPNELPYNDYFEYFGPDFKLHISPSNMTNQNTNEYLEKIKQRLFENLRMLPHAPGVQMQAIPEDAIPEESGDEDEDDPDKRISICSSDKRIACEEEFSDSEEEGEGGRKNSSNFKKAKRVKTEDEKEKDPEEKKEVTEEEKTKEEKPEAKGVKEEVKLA

Histone deacetylase 1 [3] = molecular target: T2, Histone deacetylase 1; assay: Inhibition of HDAC1 by fluorimetric assay in presence of DTT
[4] = molecular target: T3, Protein deacetylase HDAC6 (Homo sapiens, UniProt Q9UBN7); assay: Inhibition of HDAC6 by fluorimetric assay
T3 sequence (Q9UBN7 whole entry): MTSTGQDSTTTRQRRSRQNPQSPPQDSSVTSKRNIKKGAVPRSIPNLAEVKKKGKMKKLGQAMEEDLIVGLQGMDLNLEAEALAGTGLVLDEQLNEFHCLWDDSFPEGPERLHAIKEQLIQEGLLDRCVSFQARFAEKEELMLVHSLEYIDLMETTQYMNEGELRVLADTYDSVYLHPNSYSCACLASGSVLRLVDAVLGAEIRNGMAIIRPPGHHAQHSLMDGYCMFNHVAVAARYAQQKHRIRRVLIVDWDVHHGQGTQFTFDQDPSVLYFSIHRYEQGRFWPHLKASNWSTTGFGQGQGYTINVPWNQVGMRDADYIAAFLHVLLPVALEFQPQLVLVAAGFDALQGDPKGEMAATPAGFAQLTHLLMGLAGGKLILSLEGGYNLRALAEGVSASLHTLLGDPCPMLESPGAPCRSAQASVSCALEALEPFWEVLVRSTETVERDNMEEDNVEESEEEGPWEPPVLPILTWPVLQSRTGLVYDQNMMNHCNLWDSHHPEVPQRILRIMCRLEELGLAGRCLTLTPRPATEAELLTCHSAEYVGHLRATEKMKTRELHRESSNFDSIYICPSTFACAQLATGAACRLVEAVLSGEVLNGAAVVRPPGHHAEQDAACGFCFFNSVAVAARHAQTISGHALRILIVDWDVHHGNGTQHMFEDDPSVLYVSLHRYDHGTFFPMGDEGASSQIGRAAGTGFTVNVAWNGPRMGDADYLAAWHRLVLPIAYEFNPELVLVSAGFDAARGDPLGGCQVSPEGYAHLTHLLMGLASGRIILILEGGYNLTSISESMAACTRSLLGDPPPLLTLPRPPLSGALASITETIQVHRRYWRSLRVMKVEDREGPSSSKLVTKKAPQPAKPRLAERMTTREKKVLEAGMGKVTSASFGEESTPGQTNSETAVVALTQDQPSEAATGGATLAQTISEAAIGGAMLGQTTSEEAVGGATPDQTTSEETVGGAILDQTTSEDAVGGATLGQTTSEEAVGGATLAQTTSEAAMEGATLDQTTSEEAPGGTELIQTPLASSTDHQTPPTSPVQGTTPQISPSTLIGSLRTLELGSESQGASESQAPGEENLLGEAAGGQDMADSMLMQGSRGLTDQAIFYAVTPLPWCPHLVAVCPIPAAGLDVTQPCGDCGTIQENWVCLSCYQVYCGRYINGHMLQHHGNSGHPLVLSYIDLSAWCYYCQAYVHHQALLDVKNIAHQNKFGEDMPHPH

[5] = molecular target: T3, Protein deacetylase HDAC6; assay: Inhibition of HDAC6 by fluorimetric assay in presence of DTT
[6] = Inhibition of HDAC assessed as induction of p21 promoter expression by cell-based assay
Histone deacetylase 4 [7] = molecular target: T1, Histone deacetylase 4; assay: Inhibition of HDAC4 by fluorimetric assay
[8] = Inhibition of HDAC

T1 sequence (P56524 whole entry): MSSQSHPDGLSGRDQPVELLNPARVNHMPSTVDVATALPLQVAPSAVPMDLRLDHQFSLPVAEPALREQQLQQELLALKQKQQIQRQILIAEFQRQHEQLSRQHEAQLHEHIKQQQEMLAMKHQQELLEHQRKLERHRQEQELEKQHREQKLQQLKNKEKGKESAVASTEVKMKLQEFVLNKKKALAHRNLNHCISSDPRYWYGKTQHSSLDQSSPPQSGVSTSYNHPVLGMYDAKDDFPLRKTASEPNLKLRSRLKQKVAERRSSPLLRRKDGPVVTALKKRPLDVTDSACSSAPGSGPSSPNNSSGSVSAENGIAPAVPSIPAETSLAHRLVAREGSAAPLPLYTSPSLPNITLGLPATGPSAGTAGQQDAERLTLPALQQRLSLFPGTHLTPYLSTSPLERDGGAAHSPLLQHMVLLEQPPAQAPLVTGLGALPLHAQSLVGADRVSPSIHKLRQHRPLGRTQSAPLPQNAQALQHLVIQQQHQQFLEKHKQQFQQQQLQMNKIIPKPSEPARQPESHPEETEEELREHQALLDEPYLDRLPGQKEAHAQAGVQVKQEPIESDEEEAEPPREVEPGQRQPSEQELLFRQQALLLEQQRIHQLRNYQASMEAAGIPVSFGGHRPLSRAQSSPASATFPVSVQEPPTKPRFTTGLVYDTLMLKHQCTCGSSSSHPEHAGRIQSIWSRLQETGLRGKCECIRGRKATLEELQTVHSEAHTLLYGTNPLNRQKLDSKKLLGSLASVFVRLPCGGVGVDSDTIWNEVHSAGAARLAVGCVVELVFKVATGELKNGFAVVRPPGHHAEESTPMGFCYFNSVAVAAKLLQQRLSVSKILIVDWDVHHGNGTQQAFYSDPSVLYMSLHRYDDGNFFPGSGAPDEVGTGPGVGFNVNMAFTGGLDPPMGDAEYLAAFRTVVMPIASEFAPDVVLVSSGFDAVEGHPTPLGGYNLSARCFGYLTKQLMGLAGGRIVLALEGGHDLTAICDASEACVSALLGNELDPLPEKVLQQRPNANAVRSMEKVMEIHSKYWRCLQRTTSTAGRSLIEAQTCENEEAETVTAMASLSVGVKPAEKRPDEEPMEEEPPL

Structure (SMILES)	pIC50 (Histone deacetylase 4 [1])	pIC50 (Histone deacetylase 1 [2])	pIC50 (Histone deacetylase 1 [3])	pIC50 [4]	pIC50 [5]	EC1000 [6] [µmol/L]	pIC50 (Histone deacetylase 4 [7])	pIC50 [8]
CC(=O)SCCCCC[C@@H]1NC(=O)[C@H]2CCCN2C(=O)[C@H](CCCCCSC(C)=O)NC(=O)C(C)(C)NC1=O	7.00	5.74	6.82	4.92	5.77	0.017	5.92	
O=C1N[C@@H]2CCOCCSSCCCCC[C@@H]1NC(=O)[C@H]1CCCN1C(=O)[C@H](Cc1ccccc1)NC2=O	8.23	< 4.00	8.00	< 4.00	6.48	0.15	< 4.00	
CC(=O)SCCCCC[C@@H]1NC(=O)[C@H]2CCCN2C(=O)[C@H](CCOCCSC(C)=O)NC(=O)C(C)(C)NC1=O	6.92	5.38	6.68	4.96	5.70	0.036	6.05	
C/C=C1\NC(=O)[C@H]2CSSCC/C=C/[C@H](CC(=O)N[C@H](C(C)C)C(=O)N2)OC(=O)[C@H](C(C)C)NC1=O						0.0031		
CC1(C)NC(=O)[C@H](CCCCCC(=O)[C@H]2CO2)NC(=O)[C@H]2CCCN2C(=O)[C@H](Cc2ccccc2)NC1=O [CHLAMYDOCIN]								9.82
CC(=O)SCCCCC[C@@H]1NC(=O)[C@H]2CCCN2C(=O)[C@H](Cc2ccccc2)NC(=O)[C@@H](CCOCCSC(C)=O)NC1=O	7.00	5.62	6.72	< 4.00	5.19	0.16	6.00	
CC(/C=C/C(=O)NO)=C\[C@@H](C)C(=O)c1ccc(N(C)C)cc1						0.02		
